Laboratory results: patent US20050037402A1, “Device and process for direct quantitative in vitro determination of a substance that is contained in a sample” (priority 2003, published 2005)

Columns and labels:
[1] = Inhibition-ELISA for binding of the unconjugated dye by selected HuCAL GOLD Fab fragments
Description: The purified and concentrated phagemids of the HuCAL GOLD antibody library were used in a standard selection process. As antigens, BSA- or transferrin-coupled ZK203468 were used alternately. The antigens were taken up in PBS and applied at concentrations of 50 μg/ml on Maxisorp™ microtiter plates F96 (Nunc). The maxisorp plates were incubated overnight at 4° C. (“coating”). After the maxisorp plates were blocked with 5% milk powder in PBS, about 2E+13 HuCAL GOLD phages were added to the antigen-loaded, blocked-off spots and incubated there overnight or for two hours at room temperature. After several washing steps, which became more stringent with progressive selection rounds, bonded phages were eluted with 20 mmol of DTT or 100 μmol of unconjugated ZK203468. Altogether, three successive selection rounds were carried out, whereby the phage amplification was carried out between the selection rounds, as described above.
Several thousand clones were isolated after the selection and sub-cloning and tested by means of ELISA in 384-well format for specific detection of the antigens ZK203468-BSA and—transferrin used in panning. Clones identified in this connection were studied in an inhibition-ELISA for efficient binding of the unconjugated dye.

[2] = Photophysical characterization of dye-antibody complexes (spectral shifts, fluorescence quantum yields); assay type: physicochemical; conditions: for Absorption Maximum (nm) / Fluorescence Maximum (nm) / Fluorescence Quantum Yield (%): 1 μmol/l dye, 2.4 μmol/l antibody in PBS; for Absorption Maximum (nm) / Fluorescence Maximum (nm): 2 hours at room temperature; for Fluorescence Quantum Yield (%): relative to indocyanine green; for Absorption Shift (nm) / Fluorescence Shift (nm): relative to the dye without antibodies in PBS (1 μmol/l)
Description: Dye-antibody complexes based on antibodies with binding to the indotricarbocyanine dye trisodium-3,3-dimethyl-2-{4-methyl-7-[3,3-dimethyl-5-sulfonato-1-(2-sulfonatoethyl)-3H-indolium-2-yl]hepta-2,4,6-trien-1-ylidene}-1-(2-sulfonatoethyl)-2,3-dihydro-1H-indole-5-sulfonate, inner salt, were examined (see Example 1). Solutions of the concentration of 1 μmol/l of the above-mentioned dye and 2.4 μmol/l of the respective antibody in PBS were produced and incubated for 2 hours at room temperature. The absorption maxima were determined with a spectral photometer (Perkin-Elmer, Lambda2). The fluorescence maxima and fluorescence quantum yields were determined with a SPEX fluorolog (wavelength-dependent sensitivity calibrated by lamp and detector) relative to indocyanine green (Q=0.13 in DMSO, J Chem Eng Data 1977, 22, 379, Bioconjugate Chem 2001, 12, 44). From the absorption and fluorescence maxima, the spectral shifts were calculated relative to the maxima of a solution of the above-mentioned dye without antibodies in PBS (1 μmol/l) (absorption max. 754 nm, fluorescence max. 783 nm, fluorescence quantum yield 10%).

B1: MOR02628: HuCAL GOLD Fab fragment binding dye ZK203468; protein SEQ-ID NO: 1 (VH-CH) and 2 (VL-CL) (antibody)
heavy: QVQLVQSGAEVKKPGSSVKVSCKASGGTFNSYAISWVRQAPGQGLEWMGGIHPYFGTANYAQKFQGRVTITADESTSTAYMELSSLRSEDTAVYYCARRWRYRWGFDIWGQGTLVTVSSASTKGPSVFPLAPSSKSTSGGTAALGCLVKDYFPEPVTVSWNSGALTSGVHTFPAVLQSSGLYSLSSVVTVPSSSLGTQTYICNVNHKPSNTKVDKKVEPKSEFEQKLISEEDLNGAPWSHPQFEK
light: DIVLTQPPSVSGAPGQRVTISCSGSSSNIGSYYVYWYQQLPGTAPKLLIYGNSQRPSGVPDRFSGSKSGTSASLAITGLQSEDEADYYCSSWDSSFSWVFGGGTKLTVLGQPKAAPSVTLFPPSSEELQANKATLVCLISDFYPGAVTVAWKADSSPVKAGVETTTPSKQSNNKYAASSYLSLTPEQWKSHRSYSCQVTHEGSTVEKTVAPTEA
modifications: Fab fragment of variable heavy chain; Fab fragment of variable light chain
Which “binding to the non-conjugated dye ZK203468” value [1] does the source give for B1 here?
The value was “bind efficiently”.

And the “Absorption Maximum (nm)” value [2]?
Its value is 768 nm.

What about the “Fluorescence Maximum (nm)” value [2] of the same molecule?
The value was 795 nm.

What about the “Fluorescence Quantum Yield (%)” value [2] of the same molecule?
Its value is 8.1%.

What about the “Absorption Shift (nm)” value [2] of the same molecule?
Its value is 14 nm.

And the “Fluorescence Shift (nm)” value [2]?
Its value is 12 nm.

B2: MOR02977: HuCAL GOLD Fab fragment binding dye ZK203468; protein SEQ-ID NO: 9 (VH-CH) and 10 (VL-CL) (antibody)
heavy: QVQLVQSGAEVKKPGSSVKVSCKASGGTFSNYAINWVRQAPGQGLEWMGNIEPYFGTANYAQKFQGRVTITADESTSTAYMELSSLRSEDTAVYYCARYFMSYKHLSDYWGQGTLVTVSSASTKGPSVFPLAPSSKSTSGGTAALGCLVKDYFPEPVTVSWNSGALTSGVHTFPAVLQSSGLYSLSSVVTVPSSSLGTQTYICNVNHKPSNTKVDKKVEPKSEFEQKLISEEDLNGAPWSHPQFEK
light: DIALTQPASVSGSPGQSITISCTGTSSDVGSNNYVSWYQQHPGKAPKLMIYGGSNRPSGVSNRFSGSKSGNTASLTISGLQAEDEADYYCQSWTTRPLNRVFGGGTKLTVLGQPKAAPSVTLFPPSSEELQANKATLVCLISDFYPGAVTVAWKADSSPVKAGVETTTPSKQSNNKYAASSYLSLTPEQWKSHRSYSCQVTHEGSTVEKTVAPTEA
modifications: Fab fragment of variable heavy chain; Fab fragment of variable light chain
For B2, which “binding to the non-conjugated dye ZK203468” value [1] is on record?
The value was “bind efficiently”.

What about the “Absorption Maximum (nm)” value [2] of the same molecule?
Its value is 773 nm.

And the “Fluorescence Maximum (nm)” value [2]?
The value was 788 nm.

What about the “Fluorescence Quantum Yield (%)” value [2] of the same molecule?
Its value is 24.5%.

And the “Absorption Shift (nm)” value [2]?
The value was 19 nm.

And the “Fluorescence Shift (nm)” value [2]?
The value was 5 nm.
